# PubChem BioAssay AID2147 (National Center for Advancing Translational Sciences (NCATS), 2009)
# The campaign covered roughly 230,000 compounds. About 3,600 (1.6%) were called active. The inconclusive results got no clear call from the source; some entries with a clear call stand among them for comparison. Calls come from the whole dose curve; as a rule, active = well fitted inhibition curve with a large enough effect (not every such curve was filed as active); inconclusive = small, poorly fitted or top-dose-only effect, or another doubt; inactive = no such curve, though single readings can be large or run the other way. Potencies of inconclusive entries are doubtful fits and often do not repeat.
# Target: Lysine-specific demethylase 4E (Homo sapiens) (UniProt B2RXH2)
# UniProt B2RXH2, sequence (B2RXH2 whole entry, looked up, the tested form may be a part): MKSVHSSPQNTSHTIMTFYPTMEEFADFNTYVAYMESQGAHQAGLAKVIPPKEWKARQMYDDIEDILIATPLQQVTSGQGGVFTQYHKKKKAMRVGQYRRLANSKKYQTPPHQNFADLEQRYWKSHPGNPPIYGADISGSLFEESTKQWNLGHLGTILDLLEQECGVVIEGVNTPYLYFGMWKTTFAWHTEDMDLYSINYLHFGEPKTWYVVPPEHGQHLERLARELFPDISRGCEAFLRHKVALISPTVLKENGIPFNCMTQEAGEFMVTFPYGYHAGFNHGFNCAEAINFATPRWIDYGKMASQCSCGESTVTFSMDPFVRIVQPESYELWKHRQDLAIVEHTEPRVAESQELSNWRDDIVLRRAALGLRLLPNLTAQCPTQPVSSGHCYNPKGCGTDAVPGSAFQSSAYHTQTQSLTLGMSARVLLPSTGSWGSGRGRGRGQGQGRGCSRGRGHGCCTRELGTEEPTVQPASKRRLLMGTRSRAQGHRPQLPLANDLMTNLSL
# Test: qHTS Assay for Inhibitors of Human Jumonji Domain Containing 2E (JMJD2E)
# Details: JMJD2E catalytic domain, FDH-coupled NADH fluorescence (FDH is formaldehyde dehydrogenase); series mostly up to 57.1 µM; activity change, negative = inhibition: at the top concentration
# Note: nearly all actives have a fitted effect of over 50% in size.
# Potency is the fitted concentration of half-maximal effect; tags give direction and shape of the fitted curve.
# 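Throughout, for activity change, negative = inhibition: 0% = wells with enzyme and -100% = buffer wells without enzyme.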
SMILES,Potency,"activity change, negative = inhibition"
O=[N+]([O-])c1cc(/C=N/N/C(=N/c2ccccn2)c2ccccn2)ccc1O,active: 17.8 µM,
CCCCN(C)C(=O)C1CCN(Cc2ccccn2)CC1,"inconclusive: 35.5 µM [inhibitor, single point]",
O=c1/c(=C/c2ccco2)sc2nc(-c3ccccc3Br)nn12,active: 25.1 µM,
COc1ccc2c(c1)SCC/C2=C\CN1C(=O)CCC1=O,,inactive: 11.2%
COc1ccccc1NC(=O)Cc1noc(CSc2cc(C)c3ccccc3n2)n1,"inconclusive: 39.8 µM [inhibitor, single point]",
COc1ccc(CC(=O)N2CCc3cc(OC)c(OC)cc3C2O)cc1OC (stereo unspecified),"inconclusive: 31.6 µM [inhibitor, partial curve]",
CC1CCC(C(C)C)C(OCC(O)CNC(C)C)C1 (stereo unspecified),,inactive: 1.37%
O=C(CCNc1cccc(F)c1)c1cc2ccccc2o1,"inconclusive: 39.8 µM [inhibitor, single point]",
CCC1C(=O)N=C(SCC(=O)NC2CCCCC2)NC1=O (stereo unspecified),,inactive: -8.7%
Cc1cccc(NC(c2ccc(C)s2)c2ccc3ccc(C)nc3c2O)n1 (stereo unspecified),"inconclusive: 39.8 µM [inhibitor, single point]",
CCOC(=O)c1sc(Nc2cccc(Cl)c2)nc1C,"inconclusive: 35.5 µM [inhibitor, single point]",
CN(C)C(=S)NC1CCS(=O)(=O)C1 (stereo unspecified),,inactive: -4.15%
COC(=O)c1[nH]c2ccc(C)cc2c1NC(=O)CN1CCN(C(=O)c2ccccc2)CC1,"inconclusive: 31.6 µM [inhibitor, partial curve]",
CCCCC/C=C\C/C=C\C/C=C\C/C=C\CCCCCC(N)=O,"inconclusive: 7.08 µM [inhibitor, single point]",
Cc1nc(NS(=O)(=O)c2ccc(Br)cc2)c2c3c(sc2n1)CCC3,,inactive: -17.1%
Cc1cc(C)c2c(N)c(C(=O)N/N=C/c3cccs3)sc2n1,"inconclusive: 35.5 µM [inhibitor, single point]",
Cc1cc(C(F)(F)F)c2c(C)nn(CCc3nn[nH]n3)c2n1,"inconclusive: 28.2 µM [inhibitor, partial curve]",
COc1ccccc1OCc1ccc(C(=O)Nc2ccccc2F)cc1,"inconclusive: 10 µM [inhibitor, partial curve]",
COc1cc([N+](=O)[O-])cc(/C=N/NC(=O)c2cc(-c3ccccc3)nc3ccccc23)c1O,active: 22.4 µM,
CSCCC(NC(=O)COc1ccccc1)C(=O)O (stereo unspecified),,inactive: -24.8%
Cn1c2ccccc2c2cnn(CC(=O)N3CCCCC3)c(=O)c21,"inconclusive: 31.6 µM [inhibitor, partial curve]",
COc1ccc(C(=O)COC(=O)CN2C(=O)C3C4C=CC(C5CC45)C3C2=O)cc1 (stereo unspecified),,inactive: -11.3%
CC(C)CC1CC(=O)OC1(C)C(=O)CSc1nc2ccccc2s1 (stereo unspecified),,inactive: 2.89%

SMILES,Potency,"activity change, negative = inhibition"
COc1cc2c(cc1OC)CN(C(=S)Nc1ccc(OC(F)F)cc1)CC2,"inconclusive: 39.8 µM [inhibitor, single point]",
COc1ccc(CN(Cc2cc3cc(C)ccc3[nH]c2=O)C(=O)N(C)C)cc1,"inconclusive: 25.1 µM [inhibitor, single point]",
Cc1c(-n2cc(C(=O)O)c(=O)c3cc(F)c(N4CCCC(O)C4)c(F)c32)c(=O)n(-c2ccccc2)n1C (stereo unspecified),"inconclusive: 22.4 µM [inhibitor, partial curve]",
COc1ccc(C2C(C(=O)NCc3ccco3)CCC(=O)N2c2ccc(OC)cc2)cc1 (stereo unspecified),,inactive: 7.5%
CCOC(=O)c1cc(-c2cccc(C(F)(F)F)c2)nc2nc(SC)[nH]c(=O)c12,"inconclusive: 20 µM [inhibitor, partial curve]",
O=C1CCC(=O)N1c1nc2nc(-c3ccccc3)cc(-c3ccccc3)n2n1,"inconclusive: 28.2 µM [inhibitor, partial curve]",
CCCOP(=O)(c1ccc(N(C)C)cc1)C(Nc1ccccc1)c1ccc(C)cc1 (stereo unspecified),,inactive: -16%
[S-]C(=Nc1ccc(Cl)cc1)N[n+]1ccccc1,,inactive: 2.41%
COC(=O)c1oc2ccc(Br)cc2c1NC(=O)c1ccccc1,"inconclusive: 7.08 µM [inhibitor, single point]",
COc1ccc(OC)c(/C=C2\S/C(=N/NC(=O)c3ccc4ccccc4c3)NC2=O)c1,"inconclusive: 4.47 µM [inhibitor, single point]",
CCc1nnc(NC(=O)CC(=O)Nc2ccccc2C(=O)O)s1,"inconclusive: 35.5 µM [inhibitor, single point]",
O=C(O)c1cc(N2C(=O)C3CC=CCC3C2=O)ccc1NCc1cccnc1 (stereo unspecified),"inconclusive: 14.1 µM [inhibitor, partial curve]",
CCCCCC(=O)N/N=C/c1ccc(N(C)C)cc1,"inconclusive: 25.1 µM [inhibitor, partial curve]",
Cc1ccc2[nH]c(C)c(CC(=O)O)c2c1,active: 22.4 µM,
CCn1c(CSc2ncn[nH]2)nc2cc(C(=O)O)ccc21,"inconclusive: 4.47 µM [inhibitor, single point]",
COc1cc(/C=C(\C#N)C(=O)NC2CCCCC2C)ccc1OS(=O)(=O)c1ccc(C)cc1 (stereo unspecified),"inconclusive: 35.5 µM [inhibitor, single point]",
O=[N+]([O-])c1ccc2c(c1)[nH]c(=S)n2-c1ccccc1,,inactive: 6.44%
CCOc1cc(/C=N/O)ccc1OS(=O)(=O)c1ccc(C)cc1,,inactive: 0.203%
O=c1[nH]c2ccccc2c(O)c1Cc1ccccc1,"inconclusive: 22.4 µM [inhibitor, partial curve]",
CCn1c(/C=C2\C(=O)N(C(C)C)c3ccccc32)nc2ccccc2c1=O,"inconclusive: 39.8 µM [inhibitor, single point]",
Cc1c(N/C=C(\Cl)C(=O)C(F)(F)F)c(=O)n(-c2ccccc2)n1C,"inconclusive: 14.1 µM [inhibitor, single point]",
O=c1cc(CN2CCC3(CC2)OCCO3)c2c(ccc3ccccc32)o1,"inconclusive: 31.6 µM [inhibitor, partial curve]",
O=C(Nc1nnc(-c2cccs2)o1)c1cccc(C(F)(F)F)c1,"inconclusive: 35.5 µM [inhibitor, single point]",
